Measured values: PubChem BioAssay AID686979 (National Center for Advancing Translational Sciences (NCATS), 2013)
Where “and” joins values, the source holds several entries; their conditions need not be identical. Identical values can stand only once. The whole screen tested about 420,000 compounds, of which about 50,000 (12%) were called active. The shares of active, inactive and inconclusive entries below differ from those in the screen. Calls follow the shape of the dose curve; as a rule, active = well fitted inhibition curve with a large enough effect; inconclusive = small, poorly fitted or top-dose-only effect; inactive = flat fitted curve, though single readings scatter. A potency beside an inconclusive call is a rough fit, not a confirmed value.

Experiment: qHTS for Inhibitors of human tyrosyl-DNA phosphodiesterase 1 (TDP1): qHTS in cells in presence of CPT; also: nearly all actives have a fitted effect of over 55% in size
Details: chicken DT40 Tdp1-/-;hTDP1 cells + 20 nM CPT, ATP luminescence, 48 h; activity change, negative = growth inhibition: at 46.2 µM (top of the series)
Summary of the method: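 Chicken DT40 Tdp1-/- cells complemented with human TDP1, 400 cells/well, exposed to compounds plus 20 nM camptothecin for at least 48 h at 37 C; viability read as ATP content by CellTiter-Glo luminescence.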
% is scaled to controls: 0 for no effect and ±100 for the full control effect; potency is read from the fitted curve at half-maximal effect; tags tell the direction and shape of the fitted curve.

SMILES	activity change, negative = growth inhibition	Potency
CCN(CC(=O)NC1CCS(=O)(=O)C1)c1ccc(S(=O)(=O)N(CC)CC)cc1[N+](=O)[O-] (stereo not drawn)	inactive: -27.3%	–
O=C(Nc1ccncc1)OCc1ccccc1	–	inconclusive: 29.1 µM [inhibitor, single point]
Nc1nc(SCc2ccccc2)cc(SCc2ccccc2)n1	inactive: 1.41%	–
Cc1ccccc1CSCC(Nc1ccc(C(=O)O)cc1[N+](=O)[O-])C(=O)O (stereo not drawn)	inactive: -17.7%	–
O=C(NCCC1=CCCCC1)c1ccc2c(=O)n3c(nc2c1)CCCCC3	–	inconclusive: 29.1 µM [inhibitor, single point]
Cc1nc2ccccc2c(=O)n1Nc1cccc(Cl)c1	–	inconclusive: 23.1 µM [inhibitor, single point]
COc1ccc(S(=O)(=O)c2cc(NS(=O)(=O)c3ccc(Cl)cc3)c(C)c(C)c2O)cc1	inactive: -19%	–
Cc1ccccc1-n1c(SCc2cccc(F)c2)nc2[nH]ncc2c1=O	–	inconclusive: 29.1 µM [inhibitor, single point]
CCCCCCCNC(=O)C1(CC2CC(c3ccccc3)=NO2)CCNCC1 (stereo not drawn)	–	inconclusive: 25.9 µM [inhibitor, single point]
Nc1c(N(Cc2ccco2)C(=O)c2ccc(Cl)cc2)c(=O)[nH]c(=O)n1Cc1ccccc1	inactive: -26.8%	–
Cc1ccc(S(=O)(=O)Nc2cccc(-c3ccc(N4CCCCCC4)nn3)c2)cc1	–	inconclusive: 18.4 µM [inhibitor, single point]
CCN(Cc1ccc2c(c1)OCO2)C(=O)CSc1nc(C)nc2sc(C)c(C)c12	–	inconclusive: 29.1 µM [inhibitor, single point]
CN(C)S(=O)(=O)c1ccc(C(=O)Nc2nc(-c3ccccc3)c(C(=O)c3ccccc3)s2)cc1	–	inconclusive: 25.9 µM [inhibitor, single point]
Cc1cccc(C2=NN(c3ccc(Br)cc3)[C@@H](C(=O)N3CCOC3=O)[C@@H]2c2ccc(Cl)cc2)c1	–	inconclusive: 20.6 µM [inhibitor, single point]
COc1ccccc1-n1c(-c2ccc(C)cc2)cn2c3c(=O)n(C)c(=O)n(C)c3nc12	–	inconclusive: 23.1 µM [inhibitor, single point]
Cc1cc(-c2ccnc(-n3ncc(C(=O)NCC4COCCO4)c3C3CC3)n2)c(C)s1 (stereo not drawn)	–	active: 9.2 µM
O=C1C2=C(NC(=S)NC2c2ccc(Cl)cc2)NC(c2ccc(Cl)cc2)N1c1ccc(Cl)cc1 (stereo not drawn)	–	inconclusive: 18.4 µM [inhibitor, single point]
O=C(O)CSc1cc(NS(=O)(=O)c2ccc(Cl)cc2)c2ccccc2c1O	–	active: 4.61 µM
COc1ccc(CCN2CC(C(=O)OCC(=O)Nc3c(C)nn(-c4ccccc4)c3C)CC2=O)cc1OC (stereo not drawn)	inactive: -28.5%	–
COCc1cc(=O)n2[nH]c(-c3cccs3)cc2n1	inactive: -17.8%	–
CCc1ccc(NC(=O)CN(c2cccc(C)c2)S(C)(=O)=O)cc1	–	inconclusive: 10 µM [inhibitor, partial curve]
CC(OC(=O)c1ccncc1)C(=O)Nc1cccc(Cl)c1 (stereo not drawn)	inactive: -4.7%	–
Cc1nn(-c2cccc(Cl)c2)c2nc(C(F)(F)F)[nH]c(=O)c12	–	inconclusive: 16.4 µM [inhibitor, partial curve]
CCc1cccc(NC(=O)CCC(=O)O)c1	inactive: -0.994%	–
Cc1sc(NC(=O)CS(=O)(=O)c2ccccc2)c(C#N)c1C	inactive: -24.1%	–

SMILES	activity change, negative = growth inhibition	Potency
O=C(OCc1ccc(Br)cc1)c1cnc(Cl)c(Cl)c1	–	inconclusive: 25.9 µM [inhibitor, single point]
COc1ccc2cc3[n+](cc2c1O)CCc1cc2c(cc1-3)OCO2	inactive: -17%	–
COC(CNC(=O)c1ccc(CS(=O)(=O)c2c(Cl)cccc2Cl)o1)OC	inactive: -15.6%	–
Cc1c(C(=O)CN2CCCC(C)(C)C2)c2ccccc2n1C	inactive: -16.1%	–
CSc1cccc(NC(=O)Nc2nc3c(C)cccc3s2)c1	–	inconclusive: 18.4 µM [inhibitor, partial curve]
CCC(=O)N1N=C(c2cccc(NS(C)(=O)=O)c2)CC1c1cccs1 (stereo not drawn)	–	inconclusive: 29.1 µM [inhibitor, single point]
Cc1ccc(NC(=O)c2ccccc2NS(=O)(=O)c2ccc(Cl)s2)cc1	–	active: 23.1 µM
Cc1cc(C)cc(NC(=S)N2CCN(c3ncc(C(F)(F)F)cc3Cl)CC2)c1	–	inconclusive: 13 µM [inhibitor, single point]
C=CCn1c(=N)n(CC(=O)c2ccccc2)c2ccccc21	–	inconclusive: 20.6 µM [inhibitor, single point]
Cc1cccc(OCC(=O)Nc2cc(C)c(O)c(-c3nc4ccccc4o3)c2)c1	–	active: 11.2 µM
COC(=O)C1N[C@@H]([C@@H](NC(=O)COc2ccccc2)C(=O)Nc2ccc(OC)cc2)SC1(C)C (stereo partly drawn)	–	inconclusive: 25.1 µM [inhibitor, partial curve, poor fit] and inconclusive: 29.1 µM [inhibitor, single point]
CCCCOC(=O)c1cc(=O)[nH]c(=O)[nH]1	inactive: 20.2%	–
O=C(O)CCC(=O)Nc1ccc2c(c1)Cc1cc(NC(=O)CCC(=O)O)ccc1-2	inactive: -3.21%	–
Cc1ccc(Sc2ccc(S(=O)(=O)Nc3ccc(CC(=O)O)cc3)cc2)cc1C	inactive: -3.05%	–
COc1ccc(-n2ncc3c2CC(C)(C)CC3NC(=O)c2ccnn2C)cc1 (stereo not drawn)	–	inconclusive: 16.4 µM [inhibitor, single point]
CSc1nc2[nH]c3c(c2c2nncn12)CC(C)(C)OC3	inconclusive: -30.2% [inhibitor]	–
COc1ccc(-c2noc(C3CC(=O)N(c4ccccc4)C3)n2)c(OC)c1 (stereo not drawn)	inactive: -20%	–
O=C(Nc1ncccc1O)c1ccc(C(=O)c2ccccc2)cc1	–	inconclusive: 23.1 µM [inhibitor, single point]
CCOc1ccc(-c2cc(NC(=O)c3c(F)cccc3F)c(C(=O)O)s2)cc1	inactive: -24.6%	–
COc1ccc(OC)c(NC2c3ccccc3C(=O)N2c2cccnc2)c1 (stereo not drawn)	inconclusive: -31.6% [inhibitor]	–
COc1ccc(OC)c(CCNC(=O)c2c3c(nc4ccccc24)C(=O)N(C2CCCCC2)C3)c1	–	inconclusive: 23.1 µM [inhibitor, single point]
Cc1noc(C)c1CSCC(=O)Nc1nc(-c2ccc(F)c(F)c2)cs1	–	active: 23.1 µM
COC(=O)c1ccc(CSc2nc3ccc(C)cc3[nH]2)o1	inactive: -24.3%	–
CCN(CCCNC(=O)c1cc(Nc2ccccc2OC)nc2ccccc12)c1cccc(C)c1	–	active: 20.6 µM
COc1cc(C(C(=O)NC2CCCCC2)N(C(=O)c2snc(C(N)=O)c2N)c2ccc(C)cc2)ccc1O (stereo not drawn)	inactive: -17.1%	–

SMILES	activity change, negative = growth inhibition	Potency
COc1ccccc1NC(=O)CCNC(=O)C1CCN(S(=O)(=O)c2ccccc2)CC1	inactive: -10.3%	–
COc1ccc(C2CC(=O)C(CS(=O)(=O)c3ccccc3)C(=O)C2)cc1 (stereo not drawn)	inactive: -0.563%	–
CCOC(=O)C1(P(=O)(c2ccc(Cl)cc2)c2ccc(Cl)cc2)CCC1	–	inconclusive: 29.1 µM [inhibitor, single point]
COCCNC(=O)c1c[nH]c2ccc(OC)cc2c1=O	inactive: -1.44%	–
COC(=O)/C=C/COc1ccccc1[N+](=O)[O-]	–	active: 9.2 µM
COc1cc(/C=N/NC(=O)c2cc(-c3ccccc3)sc2N)cc(OC)c1OC	–	active: 16.4 µM
O=C(OCc1ccccc1)N1CCC2CC1c1ccc(N3CCOCC3)cc12 (stereo not drawn)	–	inconclusive: 29.1 µM [inhibitor, single point]
COC(=O)c1c(-c2ccccc2)csc1NC(=O)CSc1ncnc2sc(C)c(C)c12	–	inconclusive: 20.6 µM [inhibitor, single point]
COc1cnn(-c2cccc(Cl)c2)c(=O)c1Cl	–	inconclusive: 16.4 µM [inhibitor, single point]
O=S(=O)(NCC(Nc1ccc(Cl)cc1)c1ccccc1)c1ccccc1 (stereo not drawn)	–	inconclusive: 29.1 µM [inhibitor, single point]
Cc1ccccc1-c1nc(S(=O)(=O)c2ccccc2)c(NCCN2CCOCC2)o1	–	inconclusive: 18.4 µM [inhibitor, partial curve]
O=C(N1CCCCC1)N1CCN(C(=O)N(c2ccccc2)c2ccccc2)CC1	–	inconclusive: 29.1 µM [inhibitor, single point]
COc1cc(NC(=O)Nc2ccccc2)c(OC)cc1NC(=O)CN1CCCCC1	–	inconclusive: 16.4 µM [inhibitor, partial curve]
Cc1cc(C)c(NC(=O)COc2ccc3c(C)cc(=O)oc3c2)c(C)c1	–	inconclusive: 13 µM [inhibitor, partial curve]
COc1ccccc1C(=O)Nc1nnc(-c2ccc3c(c2)CCCC3)o1	–	inconclusive: 25.9 µM [inhibitor, single point]
CCOC(=O)c1sc(N2N=C(C)C(N=Nc3cccc(C)c3)C2=O)nc1C (stereo not drawn)	–	inconclusive: 20.6 µM [inhibitor, single point]
Cc1ccc(C(C)C)c(OCCSc2nc3ccccc3n2CC(=O)O)c1	inactive: -6.59%	–
COc1ccc(S(=O)(=O)N(C)CC(=O)Nc2cccc(C(C)=O)c2)cc1Cl	–	active: 12.6 µM
CC(N=Cc1ccccc1O)c1ccccc1 (stereo not drawn)	inactive: -21.7%	–
CCN1CCc2c(C#N)c(N3CCOCC3)nc(NCCO)c2C1	–	inconclusive: 29.1 µM [inhibitor, single point]
O=C(NC(=S)NNC(=O)c1cccs1)c1ccccc1	–	inconclusive: 25.9 µM [inhibitor, single point]
O=[N+]([O-])c1ccc(S(=O)(=O)NNC(=S)NCCc2ccccc2)cc1	inactive: -5.47%	–
CC1(C)CC(=O)C2=C(C1)c1c(ccc3ccccc13)NC2c1ccc(Br)o1 (stereo not drawn)	–	inconclusive: 29.1 µM [inhibitor, single point]
